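96-well plates; 48 h exposure; 5 concentrations. Endpoints by linear interpolation between flanking doses. Not reached: highest tested concentration assigned. The concentration for 50% growth inhibition is given as GI50.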 For part of its entries the source gives two or more results. This list holds those alone. There may be further records. Values given together are repeated measurements across runs, samples, wells, individuals or studies. What stands in brackets tells the records apart. Letters count within one entry.
Assays:
Assay in all cases: NCI tumour cell line growth inhibition, 48 h
SR leukemia = system: SR leukemia
LOX IMVI melanoma = system: LOX IMVI melanoma
MDA-MB-435 = system: MDA-MB-435
K-562 leukemia = system: K-562 leukemia

**Q.** Which GI50 (SR leukemia) does the source give for `COc1cc(C)c(-c2ccc(=O)c(OC)cc2C)c(OC)c1OC` here?
**A.** > 100 µM [sample A, 1 test] and 5.72 µM [sample B, 1 test]

**Q.** And the GI50 (LOX IMVI melanoma)?
**A.** > 100 µM [sample A, 1 test] and 6.68 µM [sample B, 1 test]

**Q.** What about the GI50 (MDA-MB-435) of the same compound?
**A.** > 100 µM [sample A, 1 test] and 3.45 µM [sample B, 1 test]

**Q.** What about the GI50 (K-562 leukemia) of the same compound?
**A.** > 100 µM [sample A, 1 test] and 4.97 µM [sample B, 1 test]

Source: PubChem BioAssay (NCI)
